This note sets out measurements from PubChem BioAssay AID485344 (National Center for Advancing Translational Sciences (NCATS), 2010).

About 6,900 (2%) of roughly 340,000 compounds were called active. No stated cut-off is given here; in the data, active means inhibition above about 30%; inactive means below that, where a call was filed. The entries are a selection whose mix differs from that of the whole data set. The source gives no active or inactive call for entries shown without one.

The target in the assay is D(2) dopamine receptor (Homo sapiens) (UniProt P14416). Description: HTS Assay for Allosteric Antagonists of the Human D2 Dopamine Receptor: Primary Screen for Antagonists. Further: 0% is about no effect. The following applies: HEK293 TREx D2 cells, calcium flux, dopamine EC80; at 10 µM; stronger effect = higher value. Summed up: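 Dopamine at EC80 is the agonist stimulus; test compounds precede it by 180 s. Calcium flux read kinetically in a force-coupled, inducible HEK293 T-REx D2 cell line.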
UniProt P14416, sequence (P14416 whole entry, looked up): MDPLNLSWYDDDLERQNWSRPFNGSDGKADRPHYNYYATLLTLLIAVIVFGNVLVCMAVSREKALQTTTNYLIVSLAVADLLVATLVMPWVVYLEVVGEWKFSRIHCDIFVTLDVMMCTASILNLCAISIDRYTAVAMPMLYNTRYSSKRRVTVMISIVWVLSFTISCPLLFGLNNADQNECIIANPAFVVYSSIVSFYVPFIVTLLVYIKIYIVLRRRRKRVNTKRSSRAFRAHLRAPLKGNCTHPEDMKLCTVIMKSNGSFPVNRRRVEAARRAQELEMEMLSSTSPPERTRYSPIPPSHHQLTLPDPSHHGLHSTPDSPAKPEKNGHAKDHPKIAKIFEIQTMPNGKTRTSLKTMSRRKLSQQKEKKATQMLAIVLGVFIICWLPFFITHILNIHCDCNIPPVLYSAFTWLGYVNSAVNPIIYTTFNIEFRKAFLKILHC
For orientation: Calcium flux is commonly read through the fluorescence of an indicator in the cells.
As for `CCOc1cc2[nH]c(=O)n(Cc3ccc(C(=O)NCCN(CC)CC)cc3)c(=O)c2cc1OCC`, the inhibition stood at 0.833%. `Cc1ccccc1NC(=O)c1sc2nc3c(cc2c1N)CCCC3`: the inhibition turned out to be 13.4%. The figure for `COc1cc(C2CC(=O)c3c([nH]c(C(=O)OC4CCCCC4)c3C)C2)cc(OC)c1OC` (centres undefined) is 10.5%; for `CCCCn1c2ccc(F)cc2c2nnc(SCCN(CC)CC)nc21` it is -11.1%; for `Cc1ccc(CNC(=O)c2c3c(nc4ccccc24)C(=O)N(C2CCCCC2)C3)cc1` it is 3.34%. To `Cc1ccc(C(=O)Nc2ccc3c(c2)OCO3)cc1NC(=O)c1ccco1` belongs active: 47.7%; to `CCOC(=O)c1cc(S(=O)(=O)N2CCN(c3ccc(OC)cc3)CC2)[nH]n1`, 8.13%; to `Cc1cccc(C)c1OCc1nc2c3cnn(-c4cccc(F)c4)c3ncn2n1`, 3.56%. Consider `COc1ccc(CCNC(=O)CCCn2c(=O)c3ccccc3n(Cc3ccccc3C)c2=O)cc1OC`, for which the inhibition is -6.44%. In the case of `Cc1ccc(Nc2c(-c3ccc(N4CCOCC4)cc3)nc3ncccn23)cc1`, the inhibition is -16.3%. To `Cc1ccc(C(=O)Nc2c(C(=O)NCc3ccc(Cl)cc3)sc3nc(C)cc(C)c23)cc1` belongs 9.21%; to `CCN(C(=O)c1oc2ccc(S(=O)(=O)N3CCCCCC3)cc2c1C)c1ccccc1`, 23.6%; to `CCOC(=O)c1cccc(NC(=O)CN2C(=O)CC(C)(C)Sc3ccccc32)c1`, 13.8%. To `O=C1C(=O)N(C2CCN(S(=O)(=O)c3ccc(F)cc3)CC2)CCN1Cc1ccccc1` belongs 5.14%. In the case of `Cc1cccc(NC(=O)N2CCC(CN3CCc4ccccc4C3)CC2)c1C`, the inhibition is -22.2%. The figure for `CN1C(=O)C(C)(C)c2cc(S(=O)(=O)NCc3ccc(C(=O)Nc4ccc(Cl)cc4)cc3)ccc21` is -0.246%.

`CCOc1ccc(NC(=O)Cn2cc(C(=O)c3ccc(C)c(C)c3)c(=O)c3cc4c(cc32)OCCO4)cc1`: the inhibition worked out at 10.7%. The figure for `O=S(=O)(NCc1cccc(Br)c1)c1ccc(-c2cc(C(F)(F)F)on2)s1` is 10.4%; for `COc1ccccc1CNC(=O)CN1C(=O)COc2ccc(S(=O)(=O)N3CCCCC3)cc21` it is -8%; for `COc1ccc(C(=O)Nc2ccc3nc(SCC(=O)N4CCCc5ccccc54)sc3c2)cc1` it is 11%. Regarding `COC(=O)c1sccc1S(=O)(=O)N(CC(=O)NCc1ccc(C)cc1)c1ccc(Cl)cc1`, the inhibition came out at 12.6%. For the molecule `COC(=O)CN1C(=O)CSc2ccc(S(=O)(=O)N3CCOCC3)cc21`, the inhibition is -3.94%. The figure for `CCN(CC)C(=O)c1sc2c(c1C)c(=O)n(-c1ccc(Cl)c(Cl)c1)c(=O)n2Cc1cc(=O)n2c(C)cccc2n1` is 9.47%. To `CCCCn1cc(S(=O)(=O)c2ccc(OC)cc2)c(=O)c2cc(F)c(N3CCCC3)cc21` belongs -4.1%. With `Cc1ccc(Sc2ccc(CN3CCCC3)cc2[N+](=O)[O-])cc1`, the inhibition is active: 36.4%. To `Cc1ccc(-c2nc(C)c(CCNS(=O)(=O)c3ccccc3F)s2)cc1` belongs 2.02%; to `COc1ccc(-n2nc(C(=O)Nc3cccc(C(F)(F)F)c3)c3c4ccccc4n(C)c3c2=O)cc1`, -2.53%; to `Cc1ccccc1NC(=O)CSC1=Nc2ccccc2C2=NC(CCC(=O)NCc3ccccc3)C(=O)N12` (centres undefined), -0.676%. The figure for `Cc1nn(CC(=O)NCc2ccccc2Cl)c(=O)c2nn(-c3ccccc3)c(C)c12` is 8.59%; for `Cc1nc(CC(=O)Nc2ccc(N(C)C)cc2)cs1` it is 6.7%. As to `CCc1ccc(-n2nc(C)c3c(C(=O)Nc4cc(OC)cc(OC)c4)cc(C)nc32)cc1`, the inhibition was 10.1%.

In the case of `CCOc1ccc(-c2nc(SCC(=O)NCCOC)c(-c3ccc(OC)c(OC)c3)[nH]2)cc1`, the inhibition was -4.24%.

In the case of `CCN(CC(=O)Nc1cc(Cl)ccc1C)C(=O)COc1cccc2c1OC(C)(C)C2`, the inhibition is active: 43.2%. The figure for `Cc1cc(C)cc(NC(=O)CSc2nc(-c3cccc(Cl)c3)nc3c2Cc2c(CO)cnc(C)c2O3)c1` is -18.2%; for `CSc1nc2sc3c(c2c(=O)n1-c1ccc(F)c(Cl)c1)CCN(C(C)=O)C3` it is 9.27%. To `COc1ccc(CNC(=O)Cn2c(SCC(=O)Nc3ccc(C)c(C)c3)nc3ccccc32)cc1` belongs -3.73%; to `CCOc1ccc(NC(=O)CSc2nnc(C3CC3)n2C)cc1S(=O)(=O)N1CCCCC1`, active: 43.8%; to `COc1ccc(S(=O)(=O)NCCc2csc(-c3ccc(F)cc3)n2)cc1`, -1.11%. To `Cc1cc(C)cc(OCC(=O)Nc2ccc(S(=O)(=O)Nc3onc(C)c3C)cc2)c1` belongs -0.893%.

Regarding `CCC(C)C(NC(N)=O)C(=O)NC1CCC(C)CC1` (centres undefined), the inhibition is active: 32.9%. For the molecule `O=C(CSC1=Nc2ccccc2C2=NC(Cc3ccccc3)C(=O)N12)Nc1ccccc1F` (centres undefined), the inhibition was 0.878%. To `CCOC(=O)NC1(C(F)(F)F)NC(=O)N(c2ccc(C)c(C)c2)C1=O` (centres undefined) belongs 24.8%.

Take `COc1cccc(C(=O)Nc2cccc(C(=O)OCc3cc(=O)n4nc(C(C)C)sc4n3)c2)c1`: the inhibition is -7.96%. On to `CCCc1ccc(OCC(O)CN2CCN(c3ccccn3)CC2)cc1` (centres undefined), for which the inhibition was active: 74.2%. To `CNCc1c(OCc2ccccc2F)ccc2ccccc12` belongs active: 77.8%; to `CC(=O)N1CCC(N(C(=O)Nc2c(F)cccc2F)C(C)C)CC1`, 3.88%; to `O=C(NCc1cccc(Cl)c1)C1CCN(C(=O)c2sccc2-n2cccc2)CC1`, 11.7%. The figure for `CCc1ccc(C(=O)c2cn(CC(=O)Nc3ccc(OC)cc3OC)c3ccc(CC)cc3c2=O)cc1` is -15.9%; for `COc1ccc(C(=O)N(Cc2cc(OC)c(OC)c(OC)c2)CC2CCCO2)cc1` (centres undefined) it is 8.19%; for `O=C(NCC(c1cccnc1)N1CCc2ccccc21)c1cccc(C(F)(F)F)c1` (centres undefined) it is 5.34%. To `O=C(CSc1nccn1Cc1ccc(F)cc1)Nc1ccc2c(c1)OCCO2` belongs -0.0629%; to `Cc1ccc(-c2noc(-c3nnn(CC(=O)Nc4cc(C)cc(C)c4)c3N)n2)cc1`, -2.7%; to `CCCNC(=O)CSc1nc2nc(C)c(Cc3ccccc3Cl)c(C)n2n1`, 7.41%. In the case of `CCN(CC)S(=O)(=O)c1cc(-c2onc(C)c2C)ccc1OC`, the inhibition turned out to be 3.12%. `COc1ccc(CCCc2nnc(SCC(=O)Nc3ccc(C)cc3C)o2)cc1`: the inhibition is -20.6%. `CCc1ccc(CNC(=O)CSc2cc(=O)n(C)c3ccc(Cl)cc23)cc1`: the inhibition worked out at 3.73%. The figure for `COc1ccc(OC)c(CNC(=O)Cc2ccc(NC(=O)N3CCCCc4ccccc43)cc2)c1` is 5.54%; for `COCCCNC(=O)c1c(NC(=O)Cc2coc3cc(C)cc(C)c23)sc2c1CCCC2` it is -0.521%; for `CCN(CCCNC(=O)c1cc2c(=O)n(CC)c3ccccc3c2s1)c1ccccc1` it is 16%.

`CC1CCCC(C)N1C(=O)CSc1nnc(C2CCCCC2)o1` (centres undefined): the inhibition was active: 90.3%. With `CC(NC(=O)CCSCc1ccccc1F)c1ccccc1` (centres undefined), the inhibition turned out to be 22.6%.

For the molecule `COc1ccc(-c2cc(-c3ccccc3)nc(SCC(=O)CC(=O)OC(C)C)c2C#N)cc1`, the inhibition is 0.402%. The figure for `O=C(c1ccc2c(c1)N(Cc1ccccc1F)C(=O)c1ccccc1S2(=O)=O)N1CCCC1` is -15.1%. The figure for `CC1=C(c2ccc(C)c(C)c2)S(=O)(=O)N=C1N1CCC(C(=O)NCc2ccc(C)o2)CC1` is -5.5%. The figure for `Cc1ccccc1OCCn1c(CCNC(=O)C(C)(C)C)nc2ccccc21` is -1.06%; for `CC(C)(C)OC(=O)N1CCC(c2c(C(=O)N3CCc4ccccc4C3)cnn2-c2ccc(F)cc2)CC1` it is -6.35%; for `CCOc1ccc(-c2nc(C#N)c(NCCCOC)o2)cc1` it is -9.05%. As to `CC(NC(=O)CCCn1c(=O)c2cccn2c2cccnc21)c1ccccc1` (centres undefined), the inhibition amounted to 1.98%. The figure for `Cc1coc2c(C)c3oc(=O)c(CCC(=O)NCCc4ccc(Cl)cc4)c(C)c3cc12` is 8.08%; for `CCc1ccc(CNC(=O)c2ccc(-c3nc(CS(=O)(=O)c4ccccc4)c(C)o3)cc2)cc1` it is -4.07%. As for `COc1ccc(N2CCN(C(=O)c3nc(SC)ncc3Cl)CC2)cc1`, the inhibition is -6.85%.

With `O=C(Cn1nc(-c2ccc(Cl)cc2)ccc1=O)NCc1ccccc1Cl`, the inhibition stood at 6.49%. The figure for `CCOc1ccc(OCC)c(NC(=O)CN(C)S(=O)(=O)c2ccc3c(c2)CCCC(=O)N3)c1` is 2.09%; for `COc1cccc(C2C(C(=O)Nc3ccc(C)cc3C)=C(C)Nc3c(C(=O)Nc4cccc(C)c4)cnn32)c1OC` (centres undefined) it is -2.45%. To `COc1cccc(N2CCN(C3C(=O)c4ccccc4N3C(C)=O)CC2)c1` (centres undefined) belongs 6.66%. To `CCc1c(C)nc2nc(SCc3ccccc3Cl)[nH]n2c1=O` belongs active: 31.9%; to `COc1ccc(N2CCN(C(=O)c3ccc(-c4nc(COc5ccccc5)c(C)o4)cc3)CC2)cc1`, 0.539%; to `CCCNC(=O)C1CCC(Cn2c(=O)c3sccc3n(CC(=O)N3CCC(C)CC3)c2=O)CC1` (centres undefined), 18%. Regarding `Cc1cccc(OCC(=O)N(Cc2sccc2C)C2CCS(=O)(=O)C2)c1` (centres undefined), the inhibition was -2.73%. To `CCOC(=O)N1CCc2c(sc3c2c(=O)n(-c2ccc(CC)cc2)c(=O)n3CC(=O)c2ccc(F)cc2)C1` belongs -12.7%; to `Cc1c2cnn(CC(=O)Nc3cccc(C(F)(F)F)c3)c(=O)c2c(C)n1Cc1ccccc1Cl`, 4.37%. As for `COc1ccccc1/C=C/c1nc(C#N)c(N(C)C)o1`, the inhibition is -8.59%. To `COc1cc(C(=O)Nc2ccc3nc(SCc4ccccc4)sc3c2)cc(OC)c1OC` belongs -3.73%. The figure for `CCN(C(=O)CSc1nc2ccccc2n1Cc1cc(C)ccc1C)c1ccccc1` is 3.88%; for `CCC(Sc1nncn2c1cc1occc12)C(=O)Nc1ccc(C)c(Cl)c1` (centres undefined) it is -3.7%; for `Cc1ccc(C(=O)NCC(c2cccs2)S(=O)(=O)c2cccs2)cc1` (centres undefined) it is -2.65%.

Regarding `COc1ccc(S(N)(=O)=O)cc1-c1nnc2c3ccccc3c(C)nn12`, the inhibition is active: 30.1%. To `CCOC(=O)c1cccc(NC(=O)CC2C(=O)N(c3ccc(F)cc3)C(=O)N2C(C)C)c1` (centres undefined) belongs 5.97%; to `COCCCNC(=O)CC(c1cc(OC)c(OC)c(OC)c1)N1Cc2ccccc2C1=O` (centres undefined), 11%; to `Cc1ccc(-c2nc3ncccc3o2)cc1NC(=O)COc1ccc(C(C)C)cc1`, 2.01%. As for `COc1ccc(NC(=O)C(Cc2ccccc2)NS(=O)(=O)c2ccc(Br)s2)cc1OC` (centres undefined), the inhibition is 6.73%. To `Cc1ccc([N+](=O)[O-])cc1N/C=C1\CCCCC1=O` belongs active: 51.8%. To `Cc1noc(/C=C/c2ccco2)c1S(=O)(=O)N1CCC(C(=O)Nc2ccc(F)cc2F)CC1` belongs -2.67%; to `Cc1ccc(OCC(=O)Nc2ccc3nc(SCc4ccccc4)sc3c2)cc1`, 1.37%.

The term inhibition denotes the relative decrease from the control value, in per cent.
